# Where “and” joins values, the source holds several entries; their conditions need not be identical. Equal values may be shown once. Inconclusive means that the source gave no clear call. Such entries were picked first, then a sample of the others. Where the call is inconclusive, the potency comes from a doubtful curve fit. Calls of active or inactive are those of the source. Unless noted, calls come from the whole dose curve; as a rule, active = well fitted curve in the direction sought with a large enough effect in the repeat runs; inconclusive = weak or mixed curves; inactive = no such curve, though single readings can be large; an effect the other way counts as inactive or inconclusive.
# Tests used:
# [1] = qHTS assay for identifying genotoxic compounds that show differential cytotoxicity against isogenic chicken DT40 cell lines with known DNA damage response pathways - wild type cell line (AID 743012); details: DT40 wild type chicken cells viability, CellTiter-Glo, 40 h; activity change, negative = cytotoxicity: at 68.4 µM (top of the series) unless noted; note: nearly all actives have a fitted effect of over 60% in size; for activity change, negative = cytotoxicity: % is set by controls: 0 for no effect and ±100 for the full control effect
# In short: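 Parental DNA repair-proficient DT40 cells, 300 per well, were pre-incubated ~0.5 h at 37 C/5% CO2, pin-dosed with compounds in DMSO, then incubated 40 h. Viability was read as CellTiter-Glo luminescence after 30 min at room temperature.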
# [2] = qHTS assay to identify small molecule antagonists of the androgen receptor (AR) signaling pathway - cell viability counter screen (AID 743033; note: nearly all actives have a fitted effect of over 45% in size); details: AR-bla HEK293 viability, CellTiter-Glo luminescence, 16 h; activity change, negative = cytotoxicity: at 58.5 µM (top of the series) unless noted
# [3] = qHTS assay to identify small molecule antagonists of the androgen receptor (AR) signaling pathway using the MDA cell line - cell viability counter screen (AID 743041; note: nearly all actives have a fitted effect of over 45% in size); details: MDA-kb2 viability, CellTiter-Fluor, 16 h, cells co-treated with R1881 androgen agonist; viability change, negative = cytotoxic: at 70.3 µM (top of the series) unless noted
# In short: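 R1881-driven MDA-kb2 AR-luc cells, 3,000/well, were dosed with library compounds for 16 h; cell health came from CellTiter-Fluor fluorescence in the reporter wells.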
# [4] = qHTS assay to identify small molecule antagonists of the thyroid receptor (TR) signaling pathway - cell viability counter screen (AID 743064); details: GH3.TRE-Luc viability, CellTiter-Fluor, 24 h; activity change, negative = cytotoxic: at 70.3 µM (top of the series) unless noted; note: nearly all actives have a fitted effect of over 50% in size
# In short: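 GH3.TRE-Luc cells, 4 h pre-plating; cpd + T3 1 nM final; 37 °C 23.5 h; CellTiter-Fluor 30 min; fluorescence read.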
# [5] = tested on: thyroid hormone receptor (rat, GH3 cells); test: qHTS assay to identify small molecule agonists of the thyroid receptor (TR) signaling pathway (AID 743066; calls by dose curve); details: GH3.TRE-Luc cells, TR agonist luciferase, 24 h; activation: at 83.9 µM (top of the series) unless noted
# [6] = biological target: Estrogen receptor (Homo sapiens) (UniProt P03372); test: qHTS assay to identify small molecule antagonists of the estrogen receptor alpha (ER-alpha) signaling pathway (AID 743069; active = well fitted curve in the direction sought with a large enough effect in the signal ratio in the repeat runs, not every such curve was filed as active; inconclusive = weak or mixed curves, or effect the other way; inactive = no such curve, though single readings can be large or run the other way; the % refers to the signal ratio); details: HEK293 ER-alpha-UAS-bla, beta-lactamase ratio, antagonist mode; activity, negative = inhibition: at 69.4 µM (top of the series) unless noted
# UniProt P03372, sequence (P03372 whole entry, looked up): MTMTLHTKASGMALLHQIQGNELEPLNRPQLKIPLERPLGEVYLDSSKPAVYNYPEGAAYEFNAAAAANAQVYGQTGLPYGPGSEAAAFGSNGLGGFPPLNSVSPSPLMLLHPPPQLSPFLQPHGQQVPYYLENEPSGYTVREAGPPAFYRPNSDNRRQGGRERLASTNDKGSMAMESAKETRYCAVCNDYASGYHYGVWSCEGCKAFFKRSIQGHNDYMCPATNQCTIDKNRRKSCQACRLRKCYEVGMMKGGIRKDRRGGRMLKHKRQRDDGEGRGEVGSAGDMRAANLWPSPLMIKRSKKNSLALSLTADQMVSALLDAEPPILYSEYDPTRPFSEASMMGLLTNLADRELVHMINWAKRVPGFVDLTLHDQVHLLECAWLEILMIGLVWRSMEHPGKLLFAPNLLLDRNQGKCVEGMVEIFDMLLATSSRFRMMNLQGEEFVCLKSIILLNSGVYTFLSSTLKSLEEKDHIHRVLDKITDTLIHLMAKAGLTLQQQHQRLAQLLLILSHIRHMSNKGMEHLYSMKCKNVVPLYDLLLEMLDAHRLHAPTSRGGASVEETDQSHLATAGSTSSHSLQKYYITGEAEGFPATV
# In short: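 Compound effects are measured against 17beta-estradiol stimulation in HEK293 cells with a UAS-controlled beta-lactamase reporter for ER-alpha. Exposure lasts 18 hr at 37C; LiveBLAzer B/G FRET substrate follows for 2 hr at room temperature.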
# [7] = biological target: Aromatase (Homo sapiens) (UniProt P11511); test: qHTS assay to identify aromatase inhibitors (AID 743083); details: MCF-7 aro ERE, testosterone-driven ERE luciferase, 24 h; activity, negative = inhibition: at 70.3 µM (top of the series); note: nearly all actives have a fitted effect of over 55% in size; for activity, negative = inhibition: % is set by controls: 0 for no effect and ±100 for the full control effect
# UniProt P11511, sequence (P11511 whole entry, looked up): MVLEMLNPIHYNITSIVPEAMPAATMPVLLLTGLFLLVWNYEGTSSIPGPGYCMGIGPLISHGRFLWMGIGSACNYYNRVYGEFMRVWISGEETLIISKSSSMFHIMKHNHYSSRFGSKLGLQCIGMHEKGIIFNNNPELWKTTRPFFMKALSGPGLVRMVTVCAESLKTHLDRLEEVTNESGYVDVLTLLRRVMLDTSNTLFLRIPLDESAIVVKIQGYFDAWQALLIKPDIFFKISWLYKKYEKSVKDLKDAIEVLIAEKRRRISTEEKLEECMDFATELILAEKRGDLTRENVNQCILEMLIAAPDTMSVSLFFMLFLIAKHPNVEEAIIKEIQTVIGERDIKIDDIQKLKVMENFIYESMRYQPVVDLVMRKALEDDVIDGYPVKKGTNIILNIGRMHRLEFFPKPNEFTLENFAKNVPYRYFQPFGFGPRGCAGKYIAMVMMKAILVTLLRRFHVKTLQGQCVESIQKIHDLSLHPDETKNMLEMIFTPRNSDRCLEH
# [8] = qHTS assay to identify small molecule antagonists of the estrogen receptor alpha (ER-alpha) signaling pathway - cell viability counter screen (AID 743074; calls by dose curve;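 note: HEK293 cells carrying ER-alpha-UAS-bla reporter stimulated with 17beta-estradiol; nearly all actives have a fitted effect of over 45% in size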)
# [9] = biological target: Estrogen receptor (Homo sapiens) (UniProt P03372); test: qHTS assay to identify small molecule agonists of the estrogen receptor alpha (ER-alpha) signaling pathway (AID 743075; calls by dose curve)
# [10] = biological target: Estrogen receptor (Homo sapiens) (UniProt P03372); test: qHTS assay to identify small molecule agonists of the estrogen receptor alpha (ER-alpha) signaling pathway using the BG1 cell line (AID 743079); details: BG1Luc4E2 cells, ERE-luciferase agonist, 22 h; activation: at 70.3 µM (top of the series) unless noted; note: nearly all actives have a fitted effect of over 20% in size; for activation: % is set by controls: 0 for no effect and ±100 for the full control effect
# [11] = qHTS assay to identify small molecule antagonists of the estrogen receptor alpha (ER-alpha) signaling pathway using the BG1 cell line - cell viability counter screen (AID 743081); details: BG1Luc4E2 viability, CellTiter-Fluor, 22 h; activity change, negative = cytotoxicity: at 70.3 µM (top of the series) unless noted;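 note: compound given together with 17beta-estradiol as the ER stimulus; nearly all actives have a fitted effect of over 45% in size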
# [12] = biological target: Androgen receptor (Homo sapiens) (UniProt P10275); test: qHTS assay to identify small molecule antagonists of the androgen receptor (AR) signaling pathway (AID 743035; active = well fitted inhibition curve with a large enough effect in the signal ratio in the repeat runs, not every such curve was filed as active; inconclusive = weak or mixed curves, or effect the other way; inactive = no such curve, though single readings can be large or run the other way; the % refers to the signal ratio; for activity change, negative = inhibition: % is set by controls: 0 for no effect and ±100 for the full control effect); details: HEK293 AR-UAS-bla, R1881-stimulated, beta-lactamase FRET, 16 h; activity change, negative = inhibition: at 58.5 µM (top of the series) unless noted
# UniProt P10275, sequence (P10275 whole entry, looked up): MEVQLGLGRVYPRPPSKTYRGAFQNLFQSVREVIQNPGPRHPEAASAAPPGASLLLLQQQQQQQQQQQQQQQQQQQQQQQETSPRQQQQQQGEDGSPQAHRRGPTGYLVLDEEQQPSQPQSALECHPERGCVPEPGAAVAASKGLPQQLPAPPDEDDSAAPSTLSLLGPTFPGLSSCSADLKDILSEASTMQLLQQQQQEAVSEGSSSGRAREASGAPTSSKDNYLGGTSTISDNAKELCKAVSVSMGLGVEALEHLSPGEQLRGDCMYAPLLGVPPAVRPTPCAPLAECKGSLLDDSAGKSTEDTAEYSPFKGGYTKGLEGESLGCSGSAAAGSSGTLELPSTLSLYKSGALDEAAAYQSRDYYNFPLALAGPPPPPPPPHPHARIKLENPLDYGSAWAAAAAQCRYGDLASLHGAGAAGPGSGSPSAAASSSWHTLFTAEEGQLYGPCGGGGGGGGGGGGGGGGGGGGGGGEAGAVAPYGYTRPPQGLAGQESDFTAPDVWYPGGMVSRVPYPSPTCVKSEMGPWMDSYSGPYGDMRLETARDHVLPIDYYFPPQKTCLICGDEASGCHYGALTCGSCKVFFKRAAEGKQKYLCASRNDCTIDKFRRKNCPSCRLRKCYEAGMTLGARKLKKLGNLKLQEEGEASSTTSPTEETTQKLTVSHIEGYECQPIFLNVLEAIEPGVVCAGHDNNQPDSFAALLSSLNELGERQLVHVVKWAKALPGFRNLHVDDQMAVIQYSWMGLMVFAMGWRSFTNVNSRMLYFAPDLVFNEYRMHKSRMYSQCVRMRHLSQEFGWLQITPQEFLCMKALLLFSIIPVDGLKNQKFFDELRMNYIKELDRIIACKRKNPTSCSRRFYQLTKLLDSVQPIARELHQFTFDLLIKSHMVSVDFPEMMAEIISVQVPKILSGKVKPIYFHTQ
# In short: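 HEK293 cells stably carrying a UAS-driven beta-lactamase reporter (AR-UAS-bla GripTite) were plated for 4 h at 37C, then given compound and the agonist R1881 and incubated 16 h. Reporter activity was read by LiveBLAzer B/G FRET fluorescence after 2 h at room temperature.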
# [13] = qHTS assay to identify small molecule antagonists of the thyroid receptor (TR) signaling pathway (AID 743065); note: nearly all actives have a fitted effect of over 55% in size
# In short: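 Antagonism measured as loss of luciferase signal in GH3 cells stably carrying a TRE-luciferase reporter, co-treated with compound and T3 (1 nM final) for 23.5 h at 37 C. Viability was read in the same well by CellTiter-Fluor.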
# [14] = biological target: Androgen receptor (Homo sapiens) (UniProt P10275); test: qHTS assay to identify small molecule agonists of the androgen receptor (AR) signaling pathway (AID 743036; active = well fitted activation curve with a large enough effect in the signal ratio in the repeat runs, with a control signal flat, not every such curve was filed as active; inconclusive = weak or mixed curves, or effect the other way; inactive = no such curve, though single readings can be large or run the other way; the % refers to the signal ratio); details: HEK293 AR-UAS-bla GripTite, beta-lactamase FRET ratio, 16 h; activation: at 62.4 µM (top of the series) unless noted
# In short: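 AR-bla HEK293 cells, 2,000/well; 4 h preincubation 37C/5% CO2; compound (DMSO) 16 h at 37C; LiveBLAzer B/G FRET substrate 2 h RT; fluorescence intensity read-out.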
# [15] = qHTS assay to identify small molecule antagonists of the estrogen receptor alpha (ER-alpha) signaling pathway using the BG1 cell line (AID 743080; calls by dose curve;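 note: BG1 cells stimulated with 17beta-estradiol alongside compound; nearly all actives have a fitted effect of over 25% in size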); details: BG1Luc4E2 ERE-luciferase antagonist mode, luminescence; activity change, negative = inhibition: at 70.3 µM (top of the series) unless noted
# In short: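 BG1-Luc-4E2 cells (endogenous full-length ER-alpha, 4xERE luciferase) hormone-starved 5 days in charcoal-stripped FBS, plated 4,000/well for 24 h, then compound plus 17beta-estradiol for 21.5 h at 37 C; ONE-Glo luminescence read.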
# Potency is the fitted concentration of half-maximal effect; tags give direction and shape of the fitted curve or compound fluorescence and quenching.
structure (smiles),measurement,setting,value
COc1cc2nc(N3CCN(C(=O)c4ccco4)CC3)nc(N)c2cc1OC,Potency,[1],active: 10.6 µM
same,Potency,[2],"inconclusive: 26.8 µM [cytotoxic, single point]"
same,Potency,[3],"inconclusive: 33.5 µM [cytotoxic, single point]"
same,Potency,[4],active: 8.41 µM
same,Potency,[5],"inconclusive: 13.3 µM [inhibitor, partial curve, poor fit]"
same,Potency,[6],"inconclusive: 9.52 µM [activator, partial curve]"
same,Potency,[7],"inconclusive: 33.5 µM [inhibitor, single point]"
O=C(OCC(COC(=O)c1ccccc1)(COC(=O)c1ccccc1)COC(=O)c1ccccc1)c1ccccc1,Potency,[1],inactive
same,Potency,[4],"inconclusive: 68.5 µM [cytotoxic, single point]"
CCCCCCCCCCCCCC[N+](C)(C)Cc1ccccc1,Potency,[1],active: 473 nM and active: 621 nM
same,Potency,[3],"inconclusive: 29.8 µM [cytotoxic, single point]"
same,Potency,[4],active: 11.9 µM and active: 13.9 µM
same,Potency,[6],"inconclusive: 26.8 µM [fluorescent] and inconclusive: 39.5 µM [cytotoxic, single point]"
same,Potency,[8],active: 21.3 µM and active: 22.2 µM
same,Potency,[9],"inconclusive: 39.5 µM [cytotoxic, partial curve]"
same,Potency,[10],"inconclusive: 29.8 µM [inhibitor] and inconclusive: 55.3 µM [inhibitor, partial curve]"
same,Potency,[11],"inconclusive: 62.1 µM [cytotoxic, partial curve]"
O=[N+]([O-])c1ccc(O/N=C/c2cc(Br)c(O)c(Br)c2)c([N+](=O)[O-])c1,Potency,[1],inactive
same,Potency,[2],"inconclusive: 54.7 µM [cytotoxic, single point]"
same,Potency,[4],active: 10.8 µM
same,Potency,[6],"inconclusive: 8.67 µM [inhibitor, full curve]"
same,Potency,[8],"inconclusive: 5.47 µM [cytotoxic, partial curve, poor fit]"
same,Potency,[9],inconclusive: 54.7 µM
same,Potency,[10],"inconclusive: 38.4 µM [inhibitor, partial curve, poor fit]"
same,Potency,[11],"inconclusive: 27.2 µM [cytotoxic, partial curve]"
Nc1cc(C(=O)O)ccc1Cl,Potency,[1],"inconclusive: 7.7 µM [rising, full curve, poor fit]"
same,Potency,[12],inactive
same,Potency,[10],inactive
same,Potency,[7],inactive
O=C(C(=O)c1ccccc1)c1ccccc1,Potency,[1],"inconclusive: 1.21 µM [rising, partial curve, poor fit]"
same,Potency,[3],"inconclusive: 68.3 µM [rising, partial curve, poor fit]"
CN1Cc2c(N)cccc2C(c2ccccc2)C1 (stereo not given),Potency,[1],inconclusive: 68.6 µM [cytotoxic]
same,Potency,[4],"inactive and inconclusive: 27.3 µM [cytotoxic, full curve]"
same,Potency,[13],"inconclusive: 48.6 µM [inhibitor, partial curve]"
same,Potency,[8],inactive
CCCC(CC)c1ccccc1 (stereo not given),Potency,[1],"inconclusive: 9.69 µM [rising, partial curve, poor fit]"
same,Potency,[4],inactive
O=C(Nc1ccc(Oc2ccc(Cl)cc2)c(Cl)c1)c1cc(I)cc(I)c1O,Potency,[1],inconclusive: 29.8 µM [cytotoxic]
same,Potency,[4],"inconclusive: 33.5 µM [cytotoxic, single point]"
same,activation,[5],inconclusive: -8.2% [phenotype inactive]
same,Potency,[8],active: 6.01 µM
NC(=O)c1ncn([C@@H]2O[C@H](CO)[C@@H](O)[C@H]2O)n1,Potency,[1],active: 668 nM and active: 5.12 µM
same,Potency,[2],"inconclusive: 25.9 µM [cytotoxic, partial curve, poor fit]"
same,Potency,[4],active: 33.5 µM and inconclusive: 32.3 µM [cytotoxic]
same,Potency,[5],inactive
CC(C)Oc1ccccc1O,Potency,[1],"inconclusive: 21.7 µM [rising, full curve, poor fit]"
same,Potency,[3],"inconclusive: 10.9 µM [rising, full curve]"
same,Potency,[10],inactive
same,Potency,[11],inactive
CCc1ccccc1O,Potency,[1],"inconclusive: 27.2 µM [rising, partial curve]"
same,Potency,[4],"inconclusive: 0.611 µM [rising, single point]"
CC(C)CCOCc1ccccc1,Potency,[1],inactive
same,Potency,[3],inactive
same,Potency,[6],inactive
same,Potency,[10],inactive
same,Potency,[7],inactive
O=C(N/N=C/c1ccc([N+](=O)[O-])o1)c1ccc(O)cc1,Potency,[1],active: 4.52 µM
same,Potency,[12],inconclusive: 8.11 µM
same,Potency,[14],inconclusive: 6.44 µM
same,Potency,[3],"inconclusive: 12.7 µM [cytotoxic, single point]"
same,Potency,[13],"inconclusive: 12.7 µM [inhibitor, single point]"
same,Potency,[6],"inconclusive: 7.23 µM [rising, partial curve]"
same,Potency,[10],"inconclusive: 14.3 µM [inhibitor, partial curve]"
same,Potency,[15],"inconclusive: 12.7 µM [falling, partial curve]"
same,Potency,[11],"inconclusive: 11.4 µM [cytotoxic, single point]"

# From PubChem BioAssay (Tox21)
